Source: the supplement of paper PMC12217912
The other results are listed elsewhere or left out. The full chains were built here from the parent and the listed change. Values near 0.05 are background.

B1: TEV protease; numbered along this chain (parent)
chain: MGESLFKGPRDYNPISSSICHLTNESDGHTTSLYGIGFGPFIITNKHLFRRNNGTLVVQSLHGVFKVKDTTTLQQHLVDGRDMIIIRMPKDFPPFPQKLKFREPQREERICLVTTNFQTKSMSSMVSDTSCTFPSGDGIFWKHWIQTKDGQCGSPLVSTRDGFIVGIHSASNFTNTNNYFTSVPKNFMELLTNQEAQQWVSGWRLNADSVLWGGHKVFMVKPEEPFQPVKEATQL

Variants of: B1
Test: raw area under fraction-flipped curve 0-4 h after induction (AUC4h, not background-subtracted), DNA-recorder readout of cleavage of the substrate (dimensionless); higher = more cleavage of the substrate by the protease variant
Conditions: temperature: 34 °C; time window: 0-4 h after rhamnose induction
Description: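 In vivo DNA recorder in E. coli TOP10(DE3) ΔrhaA at 34 °C. Each TEVp single-site mutant (parent TEVp 0) is paired with a single-site variant of the 7-mer TEVs (canonical ENLYFQ|S). The substrate sits between flexible linkers in a Bxb1-sfGFP-TEVs-SsrA fusion, so cleavage stabilises Bxb1 and speeds flipping of a recombination array, read by NGS. The value is the raw area under the fraction-flipped curve over 0-4 h after rhamnose induction (AUC4h), with ≥20 reads per time point. It is not background-subtracted; inactive controls average about 0.047.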
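Also: Bxb1 expression induced with 0.2% (w/v) L-rhamnose at OD600 near 0.5, cultures sampled hourly, flipped fraction per protease–substrate barcode pair counted by paired-end Illumina sequencing.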

Variant	area with substrate EALYFQS	area with substrate ECLYFQS	area with substrate EGLYFQS	area with substrate EILYFQS	area with substrate EKLYFQS	area with substrate ELLYFQS	area with substrate EQLYFQS	area with substrate ERLYFQS	area with substrate ESLYFQS	area with substrate ETLYFQS	area with substrate EVLYFQS	area with substrate EYLYFQS	area with substrate EDLYFQS	area with substrate EELYFQS	area with substrate EFLYFQS	area with substrate EMLYFQS	area with substrate EPLYFQS	area with substrate EHLYFQS	area with substrate EWLYFQS
MGESLFKGPRDYNPISSSICHLTNESDGHTTSLYGIGFGPFIITNKHLFRRNNGTLVVQSLHGVFKVKDTTTLQQHLVDGRDMIIIRMPKDFPPFPQKLKFREPQREERICLVTTNFQTKSMSSMVSDTSCTFPSGDGIFWKHWIQTKDGQCGSPLVSTRDGFIVGIHSASNFTNTNNYFTSVPKNFMELLTNQEAQQWVSGWRLNADSVLWGGHKVFMVKPEEPFQPVKEACQL [T233C]	0.117	0.115	0.0255	0.0952	0.0911	0.0869	0.092	0.103	0.077	0.0964	0.08	0.0962	–	–	–	–	–	–	–
MGESLFKGPRDYNPISSSICHLTNESDGHTTSLYGIGFGPFIITNKHLFRRNNGTLVVQSLHGVFKVKDTTTLQQHLVDGRDMIIIRMPKDFPPFPQKLKFREPQREERICLVTTNFQTKSMSSMVSDTSCTFPSGDGIFWKHWIQTKDGQCGSRLVSTRDGFIVGIHSASNFTNTNNYFTSVPKNFMELLTNQEAQQWVSGWRLNADSVLWGGHKVFMVKPEEPFQPVKEATQL [P155R]	0.0662	0.0444	–	0.0463	0.0484	0.0486	–	0.0487	0.0568	–	–	–	0.0533	0.0497	0.0551	0.0501	0.0585	–	–
MGESLFKGPRDYNPISSSICHLTNESDGHTTSLYGIGFGPFIITNKHLFRRNNGTLVVQSLHGVFKVKDTTTLQQHLVDGRDMIIIRMPKDFPPFPQKLKFREPQREERICLVTTNFQTKSMSSMVSDTSCTFPSGEGIFWKHWIQTKDGQCGSPLVSTRDGFIVGIHSASNFTNTNNYFTSVPKNFMELLTNQEAQQWVSGWRLNADSVLWGGHKVFMVKPEEPFQPVKEATQL [D137E]	0.115	0.129	0.141	0.0658	–	0.0933	0.111	0.099	0.0875	–	–	–	0.133	0.101	–	0.121	–	–	–
MGESLFKGPRDYNPISSSICHLTNESDGHTTSLYGIGFGPFIITNKHLFRRNNGTLVVQSLHGVFKVKDTTTLQQHLVDGRDMIIIRMPKDFPPFPQKLKTREPQREERICLVTTNFQTKSMSSMVSDTSCTFPSGDGIFWKHWIQTKDGQCGSPLVSTRDGFIVGIHSASNFTNTNNYFTSVPKNFMELLTNQEAQQWVSGWRLNADSVLWGGHKVFMVKPEEPFQPVKEATQL [F101T]	0.055	0.0549	–	0.059	–	0.0656	–	0.0628	0.0598	–	0.0547	–	0.0454	0.0593	0.0794	–	–	0.0556	0.0674
MGESLFKGPRDYNPISSSICHLTNESDGHTTSLYGIGFGPFIITNKHLFRRNNGTLVVQSLHGVFKVKDTTTLQQHLVDGRDMIIIRMPKDFPPFPQKLKFREPQREERICLVTTNFQTKSMSSMVSDTSCLFPSGDGIFWKHWIQTKDGQCGSPLVSTRDGFIVGIHSASNFTNTNNYFTSVPKNFMELLTNQEAQQWVSGWRLNADSVLWGGHKVFMVKPEEPFQPVKEATQL [T132L]	0.0877	0.0796	–	0.088	0.0765	0.0854	–	–	0.092	–	0.0833	–	0.135	0.109	0.0975	0.0778	0.0967	0.0975	–
MGESLFKGPRDYNPISSSICHLTNESDGHTTSLYGIGFGPFIITNKHLFRRNNGTLVVQSLHGVFKVKDTTTLQQHLVDGRDMIIIRMPKDFPPFPQKLKFREPQREERICLVTTNFQTKSMSSMVSDTSCTFISGDGIFWKHWIQTKDGQCGSPLVSTRDGFIVGIHSASNFTNTNNYFTSVPKNFMELLTNQEAQQWVSGWRLNADSVLWGGHKVFMVKPEEPFQPVKEATQL [P134I]	0.126	0.0951	–	0.0706	0.107	0.0925	–	0.0856	0.0978	0.0665	0.0867	0.099	0.104	0.0927	0.0759	0.0964	0.109	–	0.111
MGESLFKGPRDYNPISSSICHLTNESDGHTTSLYGIGFGPFIITNKHLFRRNNGTLVVQSLHGVFKVKDTTTLQQHLVDGRDMIIIRMPKDFRPFPQKLKFREPQREERICLVTTNFQTKSMSSMVSDTSCTFPSGDGIFWKHWIQTKDGQCGSPLVSTRDGFIVGIHSASNFTNTNNYFTSVPKNFMELLTNQEAQQWVSGWRLNADSVLWGGHKVFMVKPEEPFQPVKEATQL [P93R]	0.108	0.11	–	0.0831	–	–	–	0.0958	–	–	–	–	0.104	–	–	–	–	–	–
MGESLFKGPRDYNPISSSICHLTNESDGHTTSLYGIGFGPFIITNKHLFRRNNGTLVVQSLHGVFKVKDTTTLQQHLVDGRDMIIIRMPKDFPPFPQKLKFREPQREERICLVTTNFQTKSMSSMVSDTSCTFPSGDGIFWKHWIQTKDGQCGSPLVSTRDGFIVGIHSASNFTNTNNYFTSVPKNFMELLTNQEAQQWVSGWRLNADSVLWGGHKVFMVKPEEPFQCVKEATQL [P228C]	0.105	0.109	0.108	0.0652	0.108	–	0.137	0.118	0.101	–	0.0863	–	0.0889	0.117	–	–	0.117	0.113	0.0864
MGESLFKGPRDYNPISSSICHLTNESDGHTTSLYGIGFGPFIITNKHLFRRNNGTLVVQSLHGVFKVKDTTTLQQHLVDGREMIIIRMPKDFPPFPQKLKFREPQREERICLVTTNFQTKSMSSMVSDTSCTFPSGDGIFWKHWIQTKDGQCGSPLVSTRDGFIVGIHSASNFTNTNNYFTSVPKNFMELLTNQEAQQWVSGWRLNADSVLWGGHKVFMVKPEEPFQPVKEATQL [D82E]	0.0815	0.0653	0.0678	0.0519	0.0765	0.0575	0.0712	–	0.0693	–	0.0646	0.0647	0.0992	0.0039	0.085	0.0665	–	–	–
MGESLFKGPRDYNPISSSICHLTNESDGHTTSLYGIGFGPFIITNKHLFRRNNGTLVVQSLHGVFKVKDTTTLQQHLVDGRDMIIIRMPKDFPPFPQKLKFREPQREERICLVTTNFQTKSMSSMVSDTSCTFPSGDGIFWKHWIQTKDGQCGSPLVSTRDGFIVGIHSASNFTNTNNYFTSVPKNFMELLTNQEAQQWVSGLRLNADSVLWGGHKVFMVKPEEPFQPVKEATQL [W203L]	0.0892	0.128	0.0487	0.0438	0.0742	0.0581	0.15	–	0.0641	–	–	–	–	0.0664	–	–	–	–	0.0502
